Consider one molecule from PMC9959916.

Protein sequences, listed by entry. Tags and fused reporters are not part of them.
UniProt Q06609: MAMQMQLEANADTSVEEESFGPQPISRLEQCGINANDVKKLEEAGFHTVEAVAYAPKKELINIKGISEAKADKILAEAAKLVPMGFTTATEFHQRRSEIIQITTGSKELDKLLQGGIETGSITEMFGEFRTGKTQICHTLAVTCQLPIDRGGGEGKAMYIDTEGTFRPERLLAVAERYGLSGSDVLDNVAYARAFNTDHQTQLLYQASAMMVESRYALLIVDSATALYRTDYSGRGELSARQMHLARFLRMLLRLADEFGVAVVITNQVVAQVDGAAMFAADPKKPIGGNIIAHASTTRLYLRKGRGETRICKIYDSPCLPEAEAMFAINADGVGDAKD

For this test, the target named is endogenous RAD51 (HeLa cells) (human (endogenous in HeLa)) (UniProt Q06609). As to the kind of experiment: co-IP; lysates of HeLa cells stably expressing FLAG-HA-NLS-fused canine BRCA2 peptides; 3 μg anti-RAD51 at 4 °C overnight, Protein G Dynabeads; peptides detected with anti-FLAG.

These are yes or no findings as the source states them, for the method shown. Binding seen in cells or lysates may run through a third protein. Some entries that bind do so weakly or less than the wild type. Tags and fused reporters may be left off the sequences shown.

B1: FLAG-HA-NLS-fused cBRC1-HCR-BRC2 (canine BRCA2 993–1248 aa) (domain or fragment, UniProt Q8MKI9 993-1248)
chain: PISNHSFENGFKTASNKEIKLSENNIRKSKMLFKDIEEHYPTNLACLEIVNTSSLESQKKPSKSHALDPQSINIISGFVQNSTYVSDSESGHTAPPTLSLKQDFDSNRNLTPSQKAEITELSTILEESGSQFEFTQFRKPSHIIQKNPFEMPENQLTILNSTSKEWKDDDLHLTTNAPSISQVDSKKSEGIIGGKQKFACLSRTSCNRSASGYSTDKNEVEFRGFYSARGTKLNVGSEALQKAKKLFSDLENINEE
Consider B1, for which the binding result is reported as “binds”.
